These are yes or no findings as the source states them, for the method shown. In cells and extracts the contact can be indirect. Some results given as binding are weak or reduced against the parent protein; the word gives no strength.
How the values were obtained:
[1] = biological target: β-catenin, endogenous (human (endogenous in HT-29 and DLD1)) (UniProt P35222); assay: co-IP; endogenous proteins in whole cell lysates of HT-29, DLD1 or SW480 cells; 2 μg immunoprecipitation antibody overnight at 4 °C, Protein A/G PLUS-Agarose 2 h; cells in high glucose or glucose deprivation (Gd) with or without glutamine, or stably expressing GFP-GRP78
[2] = biological target: purified recombinant GST-GRP78 protein (human) (UniProt P11021); assay: pull-down; GST-GRP78 immobilized on Sepharose 4B-glutathione beads, incubated with pre-cleared whole cell lysates (HT-29, DLD1, or MDCK cells stably expressing APC truncations) at 4 °C for 12 h; immunoblot with anti-APC or anti-GFP antibody; only the target purified
[3] = biological target: Glucose regulated protein 78 (GRP78), endogenous (human (endogenous in HT-29, DLD1 and SW480)) (UniProt P11021); assay: co-IP; endogenous proteins in whole cell lysates of HT-29, DLD1 or SW480 cells; 2 μg immunoprecipitation antibody overnight at 4 °C, Protein A/G PLUS-Agarose 2 h; cells in high glucose or glucose deprivation (Gd) with or without glutamine, or stably expressing GFP-GRP78

By UniProt entry, the sequences of proteins in these tests, tags left out. Residues count along the entry.
UniProt P35222: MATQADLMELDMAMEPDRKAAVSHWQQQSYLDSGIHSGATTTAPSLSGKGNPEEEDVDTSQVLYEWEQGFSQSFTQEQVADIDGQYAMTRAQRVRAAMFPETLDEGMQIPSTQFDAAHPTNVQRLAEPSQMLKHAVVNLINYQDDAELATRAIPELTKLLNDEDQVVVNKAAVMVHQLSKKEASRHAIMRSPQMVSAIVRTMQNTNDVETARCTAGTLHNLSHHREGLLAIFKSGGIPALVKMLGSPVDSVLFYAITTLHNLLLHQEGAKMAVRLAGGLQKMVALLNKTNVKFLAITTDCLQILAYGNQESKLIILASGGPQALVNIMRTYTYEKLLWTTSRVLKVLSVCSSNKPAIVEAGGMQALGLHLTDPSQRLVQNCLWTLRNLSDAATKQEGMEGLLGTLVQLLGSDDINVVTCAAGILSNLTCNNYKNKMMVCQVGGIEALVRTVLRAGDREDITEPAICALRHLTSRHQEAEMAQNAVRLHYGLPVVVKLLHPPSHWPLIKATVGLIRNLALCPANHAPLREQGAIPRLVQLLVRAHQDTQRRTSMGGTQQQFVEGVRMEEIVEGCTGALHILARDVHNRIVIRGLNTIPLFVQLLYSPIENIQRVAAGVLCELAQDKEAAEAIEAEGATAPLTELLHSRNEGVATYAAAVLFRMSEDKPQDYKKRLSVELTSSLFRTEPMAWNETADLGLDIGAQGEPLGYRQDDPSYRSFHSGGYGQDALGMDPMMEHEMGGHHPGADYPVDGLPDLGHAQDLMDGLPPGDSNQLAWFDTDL
UniProt P11021, residues 19-654: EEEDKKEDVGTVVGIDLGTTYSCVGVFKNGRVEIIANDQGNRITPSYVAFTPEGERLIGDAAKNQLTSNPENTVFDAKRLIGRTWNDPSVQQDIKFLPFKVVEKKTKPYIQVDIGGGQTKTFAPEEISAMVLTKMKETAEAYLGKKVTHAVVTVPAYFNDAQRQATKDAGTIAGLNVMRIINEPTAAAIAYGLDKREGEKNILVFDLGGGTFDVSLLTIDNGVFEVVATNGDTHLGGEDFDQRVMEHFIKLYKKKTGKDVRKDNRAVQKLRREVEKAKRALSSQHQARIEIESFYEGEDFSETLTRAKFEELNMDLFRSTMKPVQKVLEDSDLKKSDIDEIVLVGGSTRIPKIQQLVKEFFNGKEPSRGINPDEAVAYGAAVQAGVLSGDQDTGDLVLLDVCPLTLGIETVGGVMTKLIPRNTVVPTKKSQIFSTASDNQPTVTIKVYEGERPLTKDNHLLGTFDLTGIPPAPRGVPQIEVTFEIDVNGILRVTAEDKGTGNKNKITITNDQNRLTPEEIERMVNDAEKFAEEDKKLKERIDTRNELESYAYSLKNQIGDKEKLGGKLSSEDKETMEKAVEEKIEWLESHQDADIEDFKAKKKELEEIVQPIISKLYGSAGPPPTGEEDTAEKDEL
truncated N1-APC (aa 1-448) (P25054, residues 1-448): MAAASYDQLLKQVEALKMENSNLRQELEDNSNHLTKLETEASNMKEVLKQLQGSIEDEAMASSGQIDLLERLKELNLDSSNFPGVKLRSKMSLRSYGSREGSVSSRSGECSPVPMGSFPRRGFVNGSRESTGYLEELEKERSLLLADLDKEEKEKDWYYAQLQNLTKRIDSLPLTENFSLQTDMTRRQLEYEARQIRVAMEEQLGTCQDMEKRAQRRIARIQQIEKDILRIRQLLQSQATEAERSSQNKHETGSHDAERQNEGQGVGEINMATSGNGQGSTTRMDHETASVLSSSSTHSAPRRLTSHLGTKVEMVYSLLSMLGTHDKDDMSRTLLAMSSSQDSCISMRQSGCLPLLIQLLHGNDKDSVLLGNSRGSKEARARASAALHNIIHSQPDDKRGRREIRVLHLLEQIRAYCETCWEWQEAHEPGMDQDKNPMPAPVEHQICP
truncated N2-APC (aa 449-781) (P25054, residues 449-781): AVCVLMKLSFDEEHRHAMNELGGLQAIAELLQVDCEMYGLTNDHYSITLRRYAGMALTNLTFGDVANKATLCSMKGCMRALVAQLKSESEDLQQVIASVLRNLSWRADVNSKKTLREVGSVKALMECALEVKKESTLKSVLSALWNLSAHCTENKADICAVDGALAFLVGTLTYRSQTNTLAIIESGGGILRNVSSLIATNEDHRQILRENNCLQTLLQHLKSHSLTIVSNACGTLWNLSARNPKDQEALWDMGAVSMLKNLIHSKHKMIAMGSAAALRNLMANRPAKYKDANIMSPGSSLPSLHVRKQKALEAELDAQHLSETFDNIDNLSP
truncated N3-APC (782-1082) (P25054, residues 782-1082): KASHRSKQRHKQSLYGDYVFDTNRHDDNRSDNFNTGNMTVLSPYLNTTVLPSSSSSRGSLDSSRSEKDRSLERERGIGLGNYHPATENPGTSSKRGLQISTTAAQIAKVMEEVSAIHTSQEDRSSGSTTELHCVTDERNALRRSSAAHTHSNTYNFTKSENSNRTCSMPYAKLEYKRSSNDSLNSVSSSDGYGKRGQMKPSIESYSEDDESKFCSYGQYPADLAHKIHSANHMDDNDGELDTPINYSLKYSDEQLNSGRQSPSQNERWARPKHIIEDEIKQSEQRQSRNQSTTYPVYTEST

| Substance | binding [2] | further results |
| --- | --- | --- |
| Glucose regulated protein 78 (GRP78), endogenous (from UniProt P11021 19-654) |  | binding [1]: binds |
| truncated N1-APC (aa 1-448) (from UniProt P25054 1-448) (domain or fragment) | binds |  |
| truncated N2-APC (aa 449-781) (from UniProt P25054 449-781) (domain or fragment) | no binding |  |
| truncated N3-APC (782-1082) (from UniProt P25054 782-1082) (domain or fragment) | no binding |  |
| β-catenin, endogenous (from UniProt P35222 1-781) |  | binding [3]: binds |

Reference: PMC4170599
